This is one part of the list.
B1: PhoQ; a variant is named by its letters at X, in order, P23837 (parent)
chain: MKKLLRLFFPLSLRVRFLLATAAVVLVLSLAYGMVALIGYSVSFDKTTFRLLRGESNLFYTLAKWENNKLHVELPENIDKQSPTMTLIYDENGQLLWAQRDVPWLMKMIQPDWLKSNGFHEIEADVNDTSLLLSGDHSIQQQLQEVREDDDDAEMTHSVAVNVYPATSRMPKLTIVVVDTIPVELKSSYMVWSWFIYVLSANLLLVIPLLWVAAWWSLRPIEALAKEVRELEEHNRELLNPATTRELTSLVRNLNRLLKSERERYDKYRTTLTDLTHSLKTPLXXLQXXLRSLRSEKMSVSDAEPVMLEQISRISQQIGYYLHRASMRGGTLLSRELHPVAPLLDNLTSALNKVYQRKGVNISLDISPEISFVGEQNDFVEVMGNVLDNACKYCLEFVEISARQTDEHLYIVVEDDGPGIPLSKREVIFDRGQRVDTLRPGQGVGLAVAREITEQYEGKIVAGESMLGGARMEVIFGRQHSAPKDE

Variants of: B1
Test: enrichment ratio after two sorts for PhoP signalling (ratio (wild type AVST 3.29)); higher = more functional
Settings: with PhoP (E. coli)

Row | Variant | enrichment ratio
1 | YKPP | ≤ 0.25
2 | KYEQ | ≤ 0.25
3 | HYVF | ≤ 0.25
4 | QMTT | ≤ 0.25
5 | VNRS | ≤ 0.25
6 | PFAL | ≤ 0.25
7 | QHCY | ≤ 0.25
8 | QQSY | ≤ 0.25
9 | KDFG | ≤ 0.25
10 | LNDL | ≤ 0.25
11 | RNMN | ≤ 0.25
12 | PMKQ | ≤ 0.25
13 | AKNM | ≤ 0.25
14 | HPVW | ≤ 0.25
15 | HGTH | ≤ 0.25
16 | IPTF | ≤ 0.25
17 | DPWI | ≤ 0.25
18 | ALNG | ≤ 0.25
19 | WDTY | ≤ 0.25
20 | DTFM | ≤ 0.25
21 | RNLE | ≤ 0.25
22 | YHHW | ≤ 0.25
23 | IAYR | ≤ 0.25
24 | IMNS | ≤ 0.25
25 | MDNA | ≤ 0.25

Row | Variant | enrichment ratio
26 | ICDS | ≤ 0.25
27 | QICH | ≤ 0.25
28 | IRFG | ≤ 0.25
29 | TWTA | ≤ 0.25
30 | QYFM | ≤ 0.25
31 | AGFW | ≤ 0.25
32 | WKDQ | ≤ 0.25
33 | TPIW | ≤ 0.25
34 | LSVV | ≤ 0.25
35 | FQGK | ≤ 0.25
36 | FAIF | ≤ 0.25
37 | SMPV | ≤ 0.25
38 | LYDC | ≤ 0.25
39 | VNNT | ≤ 0.25
40 | DCMF | ≤ 0.25
41 | ICSP | ≤ 0.25
42 | FKDD | ≤ 0.25
43 | ASEV | ≤ 0.25
44 | MIKK | ≤ 0.25
45 | AISV | 15.9
46 | LKRS | ≤ 0.25
47 | TMWA | ≤ 0.25
48 | IDHF | ≤ 0.25
49 | KSGC | ≤ 0.25
50 | LCAK | ≤ 0.25

Row | Variant | enrichment ratio
51 | KLQG | ≤ 0.25
52 | PCTW | ≤ 0.25
53 | DKTP | ≤ 0.25
54 | GSAG | 1.06
55 | SQAP | ≤ 0.25
56 | DFVT | ≤ 0.25
57 | SWPP | ≤ 0.25
58 | NRKH | ≤ 0.25
59 | KYRN | ≤ 0.25
60 | MHQH | ≤ 0.25
61 | QGTH | ≤ 0.25
62 | NDNV | ≤ 0.25
63 | GYEP | ≤ 0.25
64 | EYSW | ≤ 0.25
65 | SALL | 18.6
66 | FPVM | ≤ 0.25
67 | PQKH | ≤ 0.25
68 | ILNM | ≤ 0.25
69 | LKYK | ≤ 0.25
70 | KEYF | ≤ 0.25
71 | MMLS | ≤ 0.25
72 | YVHD | ≤ 0.25
73 | QMAG | ≤ 0.25
74 | AWCV | ≤ 0.25
75 | NTCR | ≤ 0.25

Row | Variant | enrichment ratio
76 | LKMD | ≤ 0.25
77 | WDMD | ≤ 0.25
78 | NRNF | ≤ 0.25
79 | KGSS | ≤ 0.25
80 | YCQA | ≤ 0.25
81 | NQGV | ≤ 0.25
82 | YAIM | ≤ 0.25
83 | LHLE | ≤ 0.25
84 | SEAL | 7.85
85 | AVQI | ≤ 0.25
86 | LYDG | ≤ 0.25
87 | KKVQ | ≤ 0.25
88 | QEHQ | ≤ 0.25
89 | LNSS | ≤ 0.25
90 | HMGL | ≤ 0.25
91 | QVPF | ≤ 0.25
92 | SQTC | 20.9
93 | WYPF | ≤ 0.25
94 | KLVK | ≤ 0.25
95 | KRTY | ≤ 0.25
96 | MAGN | 13.5
97 | YFKR | 0.642
98 | QRPS | ≤ 0.25
99 | LLAA | ≤ 0.25
100 | IIWS | ≤ 0.25

Row | Variant | enrichment ratio
101 | HILK | ≤ 0.25
102 | INWC | ≤ 0.25
103 | DQPE | ≤ 0.25
104 | FWIL | ≤ 0.25
105 | GWPQ | ≤ 0.25
106 | QWIV | ≤ 0.25
107 | DCGE | ≤ 0.25
108 | AGHM | ≤ 0.25
109 | FVMK | 0.777
110 | HYTL | ≤ 0.25
111 | YMQY | ≤ 0.25
112 | NAWH | ≤ 0.25
113 | DLYG | ≤ 0.25
114 | DTAD | ≤ 0.25
115 | YSSR | ≤ 0.25
116 | PEMH | ≤ 0.25
117 | ITNQ | ≤ 0.25
118 | GMPE | ≤ 0.25
119 | LNPK | ≤ 0.25
120 | DPIW | ≤ 0.25
121 | KDFH | ≤ 0.25
122 | LSEN | ≤ 0.25
123 | ACYF | ≤ 0.25
124 | FHIG | ≤ 0.25
125 | RYGN | ≤ 0.25

Row | Variant | enrichment ratio
126 | IHID | ≤ 0.25
127 | KKCY | ≤ 0.25
128 | VAQM | ≤ 0.25
129 | AECL | 20.9
130 | AAKI | ≤ 0.25
131 | GKPT | ≤ 0.25
132 | MPQF | ≤ 0.25
133 | IDWE | ≤ 0.25
134 | DEYY | ≤ 0.25
135 | REAL | ≤ 0.25
136 | HRDP | ≤ 0.25
137 | ITWR | ≤ 0.25
138 | QCWW | ≤ 0.25
139 | GQYG | ≤ 0.25
140 | VWPG | ≤ 0.25
141 | QNVI | ≤ 0.25
142 | HHDC | ≤ 0.25
143 | GKDY | ≤ 0.25
144 | QRYF | ≤ 0.25
145 | WYEE | ≤ 0.25
146 | DKVT | ≤ 0.25
147 | ITPM | ≤ 0.25
148 | NCES | ≤ 0.25
149 | IGYF | ≤ 0.25
150 | IWGE | ≤ 0.25

Row | Variant | enrichment ratio
151 | YCNV | ≤ 0.25
152 | GTAD | ≤ 0.25
153 | VGCF | ≤ 0.25
154 | DVML | ≤ 0.25
155 | MFHA | ≤ 0.25
156 | FQCE | ≤ 0.25
157 | KLRY | ≤ 0.25
158 | WKDF | ≤ 0.25
159 | NSTI | ≤ 0.25
160 | RVRM | ≤ 0.25
161 | SDKV | ≤ 0.25
162 | YLCS | 0.567
163 | RHRK | ≤ 0.25
164 | NQGW | ≤ 0.25
165 | DMIK | ≤ 0.25
166 | KTKQ | ≤ 0.25
167 | RNTF | ≤ 0.25
168 | YRYG | ≤ 0.25
169 | FMAK | ≤ 0.25
170 | TSFD | ≤ 0.25
171 | MIGM | 2.52
172 | RTNK | ≤ 0.25
173 | HPPC | ≤ 0.25
174 | MAYR | ≤ 0.25
175 | NVNK | ≤ 0.25

Row | Variant | enrichment ratio
176 | FYMF | ≤ 0.25
177 | GRWC | ≤ 0.25
178 | VMKM | ≤ 0.25
179 | QQQV | ≤ 0.25
180 | YKII | ≤ 0.25
181 | FISA | ≤ 0.25
182 | GFDD | ≤ 0.25
183 | TYQS | ≤ 0.25
184 | SKYD | ≤ 0.25
185 | RAHT | ≤ 0.25
186 | SYCP | ≤ 0.25
187 | NMRS | ≤ 0.25
188 | LWDF | ≤ 0.25
189 | PSTA | ≤ 0.25
190 | SNVE | ≤ 0.25
191 | AQAA | 12.7
192 | KGHE | ≤ 0.25
193 | RADK | ≤ 0.25
194 | RRPV | ≤ 0.25
195 | AMFA | ≤ 0.25

Source: a collection of fitness landscapes (doi:10.1126/science.1257360)
